# In PubChem BioAssay AID485294 (National Center for Advancing Translational Sciences (NCATS), 2010):
# About 150 (0.041%) of roughly 370,000 compounds were called active. This list was built around the results that the source calls inconclusive (neither active nor inactive); the mix of calls is not that of the screen. The call rests on the fitted dose curve; in most records, active means well fitted inhibition curve with a large enough effect; inconclusive means small, poorly fitted or top-dose-only effect; inactive means flat fitted curve, though single readings scatter. Potencies of inconclusive entries are left out as doubtful fits.
# Biological target: Beta-lactamase (Escherichia coli (strain K12)) (UniProt P00811)
# Assay: qHTS Inhibitors of AmpC Beta-Lactamase (assay with detergent); further: nearly all actives have a fitted effect of over 25% in size;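 on activity change, negative = inhibition: 0% = no-compound wells and -100% = no-enzyme wells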
# Settings: AmpC hydrolysis of nitrocefin, absorbance 480 nm, 0.01% Triton; activity change, negative = inhibition: at 114 µM (top of the series)
# Method in brief: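 AmpC (5.3 nM in the dispensed reagent) in 20 mM phosphate pH 7.0 with 0.01% (detergent screen) or 0.0001% Triton X-100 was preincubated with compounds for 15 min at room temperature. Nitrocefin was then added from an 800 uM solution, and hydrolysis was followed at 480 nm.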
# Potency means the concentration at half of the fitted maximal effect; tags describe the fitted curve by direction and shape.
# Sequence of UniProt P00811 (P00811 whole entry, looked up): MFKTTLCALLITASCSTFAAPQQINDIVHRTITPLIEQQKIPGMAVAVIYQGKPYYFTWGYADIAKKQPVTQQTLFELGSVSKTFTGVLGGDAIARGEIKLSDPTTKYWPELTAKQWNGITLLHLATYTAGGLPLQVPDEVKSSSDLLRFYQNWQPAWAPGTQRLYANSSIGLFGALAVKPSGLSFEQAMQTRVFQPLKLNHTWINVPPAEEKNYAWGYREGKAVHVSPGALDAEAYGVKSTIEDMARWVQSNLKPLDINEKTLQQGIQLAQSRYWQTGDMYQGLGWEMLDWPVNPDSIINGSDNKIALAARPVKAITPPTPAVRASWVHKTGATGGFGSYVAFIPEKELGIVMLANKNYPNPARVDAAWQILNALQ
SMILES,Potency,"activity change, negative = inhibition"
O=C(COc1ccc(Cl)cc1[N+](=O)[O-])NC1CCCCC1,"inconclusive [inhibitor, full curve, poor fit]",–
CN1CCC(=O)N(CCN=[N+]=[N-])CC1,"inconclusive [inhibitor, full curve, poor fit]",–
COc1ccccc1C(=O)NCC(=O)N1CC=C(c2ccccc2)CC1,"inconclusive [inhibitor, partial curve, poor fit]",–
COc1ccccc1NC(=O)COC(=O)/C=C/c1ccc2c(c1)OCO2,"inconclusive [inhibitor, partial curve, poor fit]",–
CC(Oc1cccc(Cl)c1)C(=O)Nc1ccc(S(=O)(=O)NC2=NCCCCC2)cc1 (configuration not stated),"inconclusive [inhibitor, full curve, poor fit]",–
COc1cccc(OC)c1C(=O)NC(=S)Nc1ccc2oc(=O)ccc2c1,–,inactive: -13.4%
Cc1ccc(CNc2cc(-c3nn4c(C)nnc4s3)ccc2C)s1,–,inactive: -0.13%
COc1ccccc1CN=c1c([N+](=O)[O-])nn(-c2ccc3c(c2)OCCO3)n1O,–,inactive: -12.7%
COc1cccc(Oc2ccc(C(F)(F)F)cc2N)c1,–,inactive: -4.12%
CCC(N)C12CC3CC(CC(O)(C3)C1)C2 (configuration not stated),"inconclusive [inhibitor, partial curve, poor fit]",–
C=CCn1c(N2CCCC2)nc2c1c(=O)n(C)c(=O)n2C,–,inactive: 1.13%
Cc1ccc(C(=O)NCCc2ccccc2)cc1,"inconclusive [inhibitor, partial curve, poor fit]",–
O=C(NNC(=S)Nc1ccccc1)c1cccs1,"inconclusive [inhibitor, partial curve]",–
CN1CCN(C(=S)Nc2ccc(Cl)cc2)CC1,"inconclusive [inhibitor, partial curve, poor fit]",–
COc1ccccc1NC(=S)N1CCN(C/C=C/c2ccccc2)CC1,"inconclusive [inhibitor, single point]",–
COc1ccc(-c2cc(C(F)(F)F)nc(SCC(=O)Nc3sc4c(c3C#N)CCC4)n2)cc1,–,inactive: -0.937%
O=C(NC(=S)Nc1nc(-c2ccccc2)cs1)c1cccnc1,"inconclusive [inhibitor, partial curve]",–
CC(=O)c1c(C)nc(-c2ccc(OCC(=O)Nc3cccc(C)c3C)cc2)n1O,"inconclusive [inhibitor, single point]",–
CCc1cccc(NC(=O)CSc2ncc3c(n2)-c2ccc(Cl)cc2N(Cc2ccccc2)S3(=O)=O)c1,–,inactive: 0.996%
Cc1cccc(C(C)C)c1NC(=O)COC(=O)c1cccc(S(=O)(=O)N2CCc3ccccc3C2)c1,–,inactive: -6.38%
C#CC[N+](C)(C)CCCCCCCCC,"inconclusive [inhibitor, partial curve]",–
COc1cccc(N2CC(O)=C(c3nc4ccccc4c(=O)[nH]3)C2=N)c1,–,inactive: 1.87%
CCCCCCCCCc1nc2sc3c(c2c(=O)n1NC(=O)c1ccc([N+](=O)[O-])cc1)CC(C)(C)OC3,–,inactive: -2.33%

SMILES,Potency,"activity change, negative = inhibition"
COCCn1cnc2c1c(=O)n(CC(=O)OCC#N)c(=O)n2Cc1ccccc1,"inconclusive [inhibitor, single point]",–
CC(=O)Nc1sc2c(c1C#N)CCN(Cc1ccccc1)C2,"inconclusive [inhibitor, partial curve, poor fit]",–
CC(Oc1ccccc1)C(=O)Nc1ccc(S(=O)(=O)N2CCN(C)CC2)cc1 (configuration not stated),"inconclusive [inhibitor, full curve, poor fit]",–
CC(C)N(Cc1ccccc1)C(=O)CN1C(=O)NC2(CCCCCC2)C1=O,"inconclusive [inhibitor, full curve, poor fit]",–
COCc1c(C(=O)Nc2ccc3nc(N4CCOCC4)sc3c2)oc2ccccc12,–,inactive: 2.62%
COc1cc2c(cc1OC)C(C)N(C(=O)Nc1ccc(F)cc1)CC2 (configuration not stated),"inconclusive [inhibitor, full curve, poor fit]",–
COc1cc(CN(C(=O)c2ccco2)c2ccc(C)cc2)ccc1O,–,inactive: -10.3%
CN(CC(=O)Nc1ccc([N+](=O)[O-])cc1Br)Cc1c(F)cccc1Cl,–,inactive: 9.03%
Cc1cccc(Nc2nc(N)c([N+](=O)[O-])c(N3CCOCC3)n2)c1,"inconclusive [inhibitor, single point]",–
COc1cc(CNc2nc3ccccc3s2)cc(OC)c1OC,"inconclusive [inhibitor, full curve, poor fit]",–
COc1ccc(/C=C(\C#N)C(=O)OCC(=O)NCc2ccccc2OC)cc1,"inconclusive [inhibitor, full curve]",–
Cc1cc(Br)ccc1NC(=S)NC1CCCC1,"inconclusive [inhibitor, full curve]",–
Cc1cc(C)cc(NC(=S)NC2CC3CCCC(C2)N3C2CCCC2)c1 (configuration not stated),–,inactive: 6.75%
COc1cccc(CNc2ccc3c(c2)CCC3)c1,"inconclusive [inhibitor, full curve]",–
COc1ccccc1NS(=O)(=O)c1cccc2cccnc12,"inconclusive [inhibitor, full curve]",–
O=C(Nc1ccc(Cl)c(Cl)c1)c1ccc(Cl)c(Cl)c1,–,inactive: -13.1%
O=C(NCC1(c2ccccc2)CCCC1)c1ccccc1,–,inactive: -17.7%
C=CCN1C(=O)CN=C1Nc1ccc(OC)cc1OC,"inconclusive [inhibitor, full curve, poor fit]",–
CCCCCSc1nc2c(c(=O)[nH]c(=O)n2C)n1CCc1ccccc1,"inconclusive [inhibitor, full curve, poor fit]",–
CCCC(c1nnnn1C(C)(C)CC)N(CCCO)Cc1cc2cc(C)cc(C)c2[nH]c1=O (configuration not stated),"inconclusive [inhibitor, full curve, poor fit]",–
CC(C(=O)NCc1cccc(Cl)c1)N1C(=O)c2ccccc2C1=O (configuration not stated),"inconclusive [inhibitor, full curve, poor fit]",–
COCCSc1ccccc1C(=O)NCc1ccc(S(N)(=O)=O)cc1,"inconclusive [inhibitor, full curve]",–
CCn1nc(C(=O)OC(C(=O)c2c[nH]c3ccccc23)c2ccccc2)c2ccccc2c1=O (configuration not stated),"inconclusive [inhibitor, single point]",–

SMILES,Potency,"activity change, negative = inhibition"
COc1ccc(NC(=O)CSc2nc3c(sc4ccccc43)c(=O)n2CCCN2CCCC2)cc1,–,inactive: 3.83%
CCc1nc2ccccc2n(CCOCCn2c(=O)c(CC)nc3ccccc32)c1=O,"inconclusive [inhibitor, full curve, poor fit]",–
CC(C)CN=C(NS(=O)(=O)c1ccccc1)C(Cl)(Cl)Cl,"inconclusive [inhibitor, single point]",–
COc1ccccc1-c1nnc(NC(=O)OCC(C)C)s1,"inconclusive [inhibitor, full curve]",–
COc1cc(NC(=O)Cc2ccccc2)ccc1NC(=O)c1ccco1,"inconclusive [inhibitor, partial curve, poor fit]",–
CN(CC(=O)NCc1ccco1)S(=O)(=O)c1ccc(F)cc1,"inconclusive [inhibitor, full curve]",–
O=c1[nH]c2ccc(S(=O)(=O)Nc3ccc(Cl)cc3)cc2[nH]1,"inconclusive [inhibitor, full curve, poor fit]",–
COc1ccc(N(C(=O)/C=C\C(=O)Nc2ccc(Cl)cc2)C(C(=O)NCc2ccco2)c2ccc(C)cc2)cc1 (configuration not stated),–,inactive: -4.85%
O=C(C(Cc1ccccc1)n1cccc1)N1CCN(c2ncccn2)CC1 (configuration not stated),"inconclusive [inhibitor, full curve, poor fit]",–
O=C(O)CNS(=O)(=O)c1ccc(Br)s1,"inconclusive [inhibitor, full curve, poor fit]",–
COc1ccc(OC)c(S(=O)(=O)Nc2cc3c(cc2C)n(C)c(=O)c(=O)n3C)c1,"inconclusive [inhibitor, full curve, poor fit]",–
Cc1csc(=O)n1CC(=O)OCC(=O)NNC(=O)c1ccc([N+](=O)[O-])cc1,"inconclusive [inhibitor, full curve, poor fit]",–
COc1ccccc1N1CCN(C2CCCN(Cc3cccc(O)c3)C2)CC1 (configuration not stated),"inconclusive [inhibitor, partial curve, poor fit]",–
CCC(C(=O)NCCc1c[nH]c2ccc(C)cc12)c1ccccc1 (configuration not stated),"inconclusive [inhibitor, single point]",–
O=C(NCc1ccco1)c1cc(-c2ccccc2)nc2ccccc12,–,inactive: -14.1%
N#CC1=C(N)SC(N)=C(C#N)C1CCC1CCCCC1,"inconclusive [inhibitor, full curve, poor fit]",–
Cc1ccc(S(=O)(=O)N2CCN(c3ccccc3)CC2)cc1,"inconclusive [inhibitor, partial curve, poor fit]",–
O=C(NCc1ccco1)c1cccc(S(=O)(=O)N2CCc3ccccc32)c1,"inconclusive [inhibitor, single point]",–
COc1cccc(C(=O)NC(C)C(c2cccs2)N2CCN(C)CC2)c1 (configuration not stated),"inconclusive [inhibitor, single point]",–
CCOC(=O)n1cc(C(=O)c2ccccc2O)cn1,"inconclusive [inhibitor, full curve, poor fit]",–
CCOc1cc(C)c(C(C)C)cc1S(=O)(=O)NCc1ccccn1,"inconclusive [inhibitor, full curve, poor fit]",–
